Laboratory results as given in the supplement of paper PMC10126150.
Values marked as one replicate rest on one cluster of the flow cell; about a third of the high ones do not repeat.

Test system: ATP
Test: switch fluorescence ratio, 500 uM ATP over buffer (Cy3 cluster intensity, sum of 5 cycles each) (fold (ratio)); higher = stronger signal-on switching upon ATP binding; sequences stand for … in TCGTCGGCAGCGTCAGATGTGTATAAGAGACAGTTTTTTTTTTTTTTTTTTTTTTTTT…TC
Conditions: aptamer strand: ATP DNA aptamer (quencher-CACCTGGGGGAGTATTGCGGAGGAAGG + anchor), 100 nM annealed; ATP concentration: 500 uM; one replicate
Method in brief: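 The quencher-labelled ATP aptamer, at 100 nM, was annealed to Cy3-labelled switching-strand clusters on a modified Illumina MiSeq flow-cell. The clusters were imaged in selection buffer, then after 15 min with 500 uM ATP at 22 °C, and this buffer/ATP cycle ran five times with NaOH stripping and re-annealing between runs. Per-cluster fluorescence ratios, summed target-cycle over summed buffer-cycle Cy3 intensity, were averaged per switch-domain sequence. Clusters outside 100-1000 RFU were excluded.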
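Note: ATP exposure 15 min at 22 °C before imaging.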

Sequence | switch fluorescence ratio
TACGTGTGTG | 0.971
CGAGCTATCG | 1.03
TCATTGTAGA | 1.01
GGATGGGAGA | 0.99
GAAATCAGAT | 0.981
TGGTATCAAG | 1
AGGCAACTCT | 0.992
GGCAATATTA | 1.17
TTATTAATA | 0.992
CGTGGGGTG | 0.994
GGGACTCTTT | 1
TACCGTTGAA | 0.989
TGCAAATTAA | 0.97
CAAAAACACT | 1.02
TTGTTATTGA | 0.979
TGCGTTTCAT | 1.01
TGCCATTAGT | 0.952
GGCACTGAGT | 1.07
TTTCTCGTGA | 1.39
CACTTGAGGG | 1.02
CATTTGTTGG | 1.01
TCGGGCTGCG | 1
TATGGTTGG | 0.959
GCCTGTGACT | 1.04
AGCGCACTTG | 1.04
TAGAGGACAA | 0.991

Sequence | switch fluorescence ratio
CATGTGGTT | 0.998
ATGGAG | 0.976
CCCTTTATGT | 1.02
GGTCTAACTG | 1.01
TTAATTCCAA | 1.04
CCAGGCGGAC | 1.5
GTTTCAGAGT | 1.02
AGCTAATGTA | 1.01
TCCAGAGAAA | 1.01
TAAACAGGTG | 1.95
GTCAACGGAT | 1.01
GGTCCGTTGG | 0.967
ACTGCTTGAG | 1.01
AAAAATTGGA | 0.918
TATGCGACGG | 1.05
TTACGAGACG | 0.995
CACTCTGACC | 1.11
TCGCTGTGGG | 1.02
AAGTGTAGCC | 1.03
CGAATGGGAG | 1.01
GGCCTATGGG | 0.993
ATGACATCCG | 1
GCCCAACGGG | 0.99
GGAATAGGGC | 0.972
GTAATCGCCC | 1.07
CTGGACCTAT | 1

Sequence | switch fluorescence ratio
CTGGGTTCTT | 1.02
AAGCATTATG | 1.03
GACACAACTC | 1.26
ACGTTAAGG | 1.11
CCCGTAATTG | 1.65
TCACATTTGT | 1.01
CTCATATCAA | 0.992
ATGACAACAT | 1.05
TCGTTATTCA | 1.01
TCGCGACGCA | 1.95
GCCGCGACCC | 1.41
ATCAAACAGG | 1.08
CCGGCCGATG | 1.05
CGTGTTTG | 0.989
CCCGGGCGCA | 1.13
TTAATACGCC | 1.76
CCTACGGCTG | 1.8
GGATCCGATC | 1.01
TCGGAACTTC | 1.04
GTGTATGGGC | 1.04
GTAGTTCAGG | 1.02
GAGTTGCTGC | 1.03
TGGTCCGCGC | 1.57
ATCCGCCATA | 3.11
AGTTCTCTC | 1.02
TTTCAAATAT | 0.989

Sequence | switch fluorescence ratio
TAATATGCGA | 1.02
TTAAAATACG | 0.975
GAGCAGCTTT | 0.99
GAGCATCA | 0.997
GGTGCGCGTA | 1.01
CGTGAGATAA | 1.02
CATGGCCCAT | 0.972
TAGACAACAG | 1.08
CGGGCATGGT | 1.01
AAGGAATAAT | 0.977
ATCCGGAGAT | 1
GTGGGAGGCA | 1.04
AAACGCCTAG | 1.01
ATTGCAGCTT | 0.96
AGGTAGACGA | 1.02
AGGGAATTAA | 0.988
GGTTAGTAAT | 1.01
GCCCGGGTTG | 1.26
CCCATTATAT | 1.03
TTGGCACTTA | 1.02
ATCGCGCCTG | 0.96
CACAAACATA | 1.11
CATGTATCCC | 1.02
ATAAGCAGGT | 1.12
TGATGCTGGT | 0.997
GGTTCTGGAC | 0.947

Sequence | switch fluorescence ratio
AGTCGTGAAA | 1.02
CGTTGCGGAC | 1.07
AAGCTCTTGC | 1.01
ATTACTTGAA | 1.02
TTAGAAAACC | 1.02
CTGAGATCGA | 1.02
CTCTCTGGTG | 1.74
TCTAGTTTTG | 0.996
GAGGACCAGT | 0.986
TGCAATCAAC | 4.08
CAGTGGTGGC | 0.979
TCGGTTAGCG | 1.01
ACGGCGTAAT | 0.956
CCGAACTAGA | 1.38
TGAGGGCAAT | 1.92
AGGAATTCGC | 0.961
ACGGGGCACC | 0.983
TACCTGATTA | 1.04
TGGACTTTAC | 1.24
ATCGACTATT | 1.01
GCCTCTGTTC | 1.05
CGCTGCTGA | 1.04
CATATAGT | 1.03
AGGCTGGCCC | 1
TTAACTTTGG | 1.03
CGAGGCTGGT | 1.05

Sequence | switch fluorescence ratio
GCACACATTG | 1.07
TGTGATGACC | 0.991
GAGCAGTACA | 1.74
CGTCACCGCC | 1.23
TCCCTTCCTA | 1.13
CGGTAACGTC | 0.953
ATGCGGAGG | 1.04
TGGAATGGTA | 0.968
TAAGCGAGAT | 1.01
GCGATTGCAC | 1.03
ATATATTCAT | 0.981
GCTTGGGAAT | 0.979
TGCAGTATG | 1.01
ATCCTTGCCT | 1.07
AAATTGTATC | 1.05
TGCATCTACG | 1.1
ATCTTTAACG | 0.983
ATTGGACCCC | 1.01
GTCCGAATTG | 1.02
AAAACTAGCT | 1.02
CGGATCAAG | 0.996
AACCTCTG | 1.09
ACTGTACCTG | 1.44
TTGCAAAAAG | 0.941
CGCTGAGACC | 1.1
TTCCTGCGGA | 1.04

Sequence | switch fluorescence ratio
AGAGCGCATG | 1.03
CCTATTCTAC | 1.16
GATACGCAGC | 1.73
TCAAGCCTGT | 0.974
CCTCCGGGAG | 4.95
CGATAGAGGG | 0.963
TGAGCGGGGT | 0.969
CTCACATTGG | 1.06
TCCTTTGTTG | 0.998
GGAAGAGGGA | 1.24
TTTCTCGTAT | 0.987
TGACGTAGCA | 1.23
TCGATATGCT | 1.03
GTGGGTAGCT | 1.01
ACTCTGCGCG | 1.26
TTCACTGCGG | 1.01
TGAGTTTGCT | 0.993
TTCGGTTGCG | 0.971
TTTCGTCCA | 1.3
CCAATGGCTC | 1.13
CTCGGGAAGG | 1.03
TTACGATTAA | 1.02
CCCCTTCCAT | 0.955
GTTTCTCGGG | 1.01
CCCTTGCTGG | 0.974
AGCAGCGTTT | 1.08

Sequence | switch fluorescence ratio
ACTATACACG | 1.29
GGTTACAACT | 0.964
TTAAGCAAA | 0.993
CAGGTAATGT | 0.987
GCTGACGCTA | 2.27
ATTTTGCACA | 0.968
AATCCGCGCG | 1.07
GTGGGGCCGG | 0.991
CAGTTGCGAC | 0.977
CGGCTGTTCT | 1.02
GAAATCGGCG | 1.01
ACTAGCAA | 3.58
CTGACTCGG | 1.07
AAGCACCGTC | 1.04
TACTGCATAT | 1.18
ATCTTCAAT | 0.991
GACACCGGAA | 2.09
CGGGGCTGGT | 1.01
TCGGATATTA | 1.02
